Assays:
[1] = target: T1, Advanced glycation end product bovine serum albumin (bovine, UniProt P02769, advanced glycation end products (sites not given)); test: ELISA; Maxisorb wells coated with 20 μg/mL AGE-BSA, blocked with BSA; sRAGE–Ig 0.1 μg/mL with various amounts of glycyrrhizin; HRP goat anti-human IgG, absorbance at 450 nm; details: both partners purified
T1 construct: bovine serum albumin, glycated to AGE-BSA; also called AGE-BSA; source: produced as described [35]

[2] = target: T2, Biotinylated amyloid β 1–42 peptide (UniProt P05067 part only, biotin (site not stated)); test: ELISA; sRAGE Ig-fusion protein (5 mg/mL as printed) bound to protein A coated Maxisorb wells, blocked with BSA; biotinylated ligand 20 nM with or without carbohydrate inhibitors; streptavidin-HRP, absorbance at 490 nm; details: both partners purified
T2 construct: amyloid β peptide 1–42, cut product of the amyloid precursor protein; numbers count on: the peptide; also called amyloid β-peptide; Amyloid β peptide 1–42; source: bought: American Peptide

[3] = target: the molecule itself; test: bead aggregation assay; monomeric fluorescent protein A coated beads incubated with 10 μg/mL of the Ig-fusion proteins, no other exogenous ligands; aggregation followed by fluorescence microscopy, index Nt/N0, pictures after 60 min

Measured: binding result

T1 sequence (P02769 25-607): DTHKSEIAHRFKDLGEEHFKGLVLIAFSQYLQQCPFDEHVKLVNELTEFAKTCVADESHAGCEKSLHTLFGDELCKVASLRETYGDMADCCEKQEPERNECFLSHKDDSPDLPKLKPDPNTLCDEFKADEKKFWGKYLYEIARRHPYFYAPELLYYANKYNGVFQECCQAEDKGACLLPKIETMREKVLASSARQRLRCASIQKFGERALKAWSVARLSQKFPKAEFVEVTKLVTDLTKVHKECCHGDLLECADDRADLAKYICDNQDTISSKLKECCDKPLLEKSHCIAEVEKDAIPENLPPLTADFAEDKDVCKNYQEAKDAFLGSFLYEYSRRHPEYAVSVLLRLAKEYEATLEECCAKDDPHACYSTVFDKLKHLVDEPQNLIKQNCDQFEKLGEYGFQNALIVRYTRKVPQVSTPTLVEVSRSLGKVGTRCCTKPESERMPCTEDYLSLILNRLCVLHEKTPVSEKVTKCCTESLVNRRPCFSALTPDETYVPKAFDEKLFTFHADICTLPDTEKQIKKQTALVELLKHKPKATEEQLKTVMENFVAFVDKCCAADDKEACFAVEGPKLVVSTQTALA

B1: Full length extracellular human RAGE (sRAGE) Ig-fusion protein (Fc fusion)
chain: not shown
notes: receptor for advanced glycation end products (RAGE), human, full length extracellular part, […]; also called soluble RAGE; full-length sRAGE–Ig fusion protein; source: Drosophila S2 cells, purified (protein A-agarose chromatography)
binds: [1] | [2] | [3]

— article PMC6165534, “Inhibition of Homophilic Interactions and Ligand Binding of the Receptor for Advanced Glycation End Products by Heparin and Heparin-Related Carbohydrate Structures” (Medicines, 2018)
